{"source": "paper PMC12922802", "about": "(Cell, 2025)", "key": {"[1]": {"molecular_target": "the molecule itself", "assay": "right-angle light scattering"}, "[2]": {"molecular_target": "the molecule itself", "assay": "time-resolved fluorescence quenching"}, "[3]": {"molecular_target": "the molecule itself", "assay": "time-resolved fluorescence quenching", "remark": "listed apart in the source"}}, "note": "Where two headings read alike, the source gives them in different places.", "data": [{"protein": "SRSF1Δ[…] (natural protein) not shown", "values": [{"measurement": "threshold concentration for microphase separation (cμ)", "setting": "[1]", "result": "0.45 ± 0.05", "unit": "µM"}, {"measurement": "stoichiometry N", "setting": "[2]", "result": "~50", "unit": "molecules per microphase"}, {"measurement": "stoichiometry N", "setting": "[3]", "result": "~12", "unit": "molecules per microphase"}]}]}
